# From PubChem BioAssay AID686992 (Broad Institute, 2013)
# Among all 260,000 compounds or so, about 960 (0.37%) were called active. Inconclusive means that the source gave no clear call. Such entries were picked first, then a sample of the others.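 Rule for the calls: active = mean E-selectin-positive cell signal at least 10% of the positive control, reached in at least 60% of replicates, without over 20% cell loss; inconclusive = no rule given, readout overlaps actives, possibly toxicity-flagged; inactive = the rest, including those meeting only one limit.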
# Molecular target: E-selectin (Homo sapiens) (UniProt P16581)
# UniProt P16581, sequence (P16581 whole entry, looked up): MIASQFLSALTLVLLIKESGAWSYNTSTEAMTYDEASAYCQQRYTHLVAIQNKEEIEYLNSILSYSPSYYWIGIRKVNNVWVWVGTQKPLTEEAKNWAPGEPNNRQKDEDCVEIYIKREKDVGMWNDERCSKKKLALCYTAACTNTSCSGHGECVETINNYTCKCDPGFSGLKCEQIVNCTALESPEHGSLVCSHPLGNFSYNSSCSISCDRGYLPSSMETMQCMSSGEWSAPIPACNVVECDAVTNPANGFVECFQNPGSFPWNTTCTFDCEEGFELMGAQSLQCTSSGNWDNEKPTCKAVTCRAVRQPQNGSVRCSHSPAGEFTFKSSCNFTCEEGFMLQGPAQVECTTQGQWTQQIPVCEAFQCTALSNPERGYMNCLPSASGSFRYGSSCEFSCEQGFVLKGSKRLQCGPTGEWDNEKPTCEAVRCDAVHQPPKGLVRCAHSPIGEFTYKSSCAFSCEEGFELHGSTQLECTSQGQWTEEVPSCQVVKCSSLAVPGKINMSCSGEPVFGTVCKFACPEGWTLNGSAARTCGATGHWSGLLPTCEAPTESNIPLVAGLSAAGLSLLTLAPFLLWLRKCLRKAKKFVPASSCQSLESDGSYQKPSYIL
# Assay: inducers of endothelial E-selectin expression – imaging, HUVEC, immunofluorescence imaging, single point, primary screen (AID 686992);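 note: signal is the percent of cells scored E-selectin positive by PE staining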
# Conditions: at 7.58 µM, stronger effect = higher value, normalized: neutral wells 0, TNF-alpha wells 100
# Summary of the method: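 Read-out basis: % PE-positive cells; Test system: HUVEC primary endothelial cells; Technique: immunofluorescence imaging; Dosing: single-point compound dose.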
row,Structure (SMILES),activation
1,CO[C@H]1CN(C)C(=O)c2cc(NC(=O)C3CC3)ccc2OC[C@@H](C)N(Cc2ccccc2)C[C@@H]1C,inactive: 0.498%
2,Cc1cc(C(=O)O)ccc1-c1ccc(/C=C2\SC(=O)N(CC(=O)Nc3ccc4c(c3)OCO4)C2=O)o1,inactive: -0.339%
3,CC(C)CCN1C(=O)c2ccccc2C1c1nnnn1C(C)C (stereo unspecified),inconclusive: 142%
4,C[C@H](CO)N1C[C@H](C)[C@@H](CN(C)C(=O)Nc2ccc(F)cc2)Oc2c(NC(=O)c3nc4ccccc4s3)cccc2C1=O,inconclusive: -0.155%
5,Cc1cc(Cl)cc2sc(=S)[nH]c12,inactive: 1.45%
6,O=C(/C=C/c1c(Cl)cccc1Cl)NCc1ccco1,inconclusive: 75.9%
7,CCOc1ccc(OCC(O)CN2CCN(S(=O)(=O)c3cccc(C(F)(F)F)c3)CC2)cc1 (stereo unspecified),inconclusive: 35.5%
8,O=S(=O)(c1ccc(F)cc1)N1[C@@H]2CNC[C@H]1C2c1ccc(-c2ccccc2)cc1 (stereo partly specified),inconclusive: 45.6%
9,CCN(c1ccccc1)c1cc(C)nc2ncnn12,inactive: 0.286%
10,COc1ccc(NCC(O)COc2ccc(C(C)(C)C)cc2)cc1 (stereo unspecified),inactive: -0.094%
11,Cc1cn(CC(=O)NCc2ccccn2)c(=O)[nH]c1=O,inconclusive: 37%
12,Cc1ccc(CN2CCCN(Cc3c(F)cccc3Cl)S2(=O)=O)cc1,inconclusive: 41.4%
13,CN1/C(=C\C=C2/SC(=S)NC2=O)C(C)(C)c2ccccc21,inconclusive: 32.8%
14,C[C@H]1CN([C@@H](C)CO)C(=O)Cc2cc(NC(=O)CCC(F)(F)F)ccc2O[C@@H]1CN(C)C(=O)NC1CCCCC1,inactive: 0.093%
15,C[C@@H]1CCCCO[C@@H](CN(C)S(=O)(=O)c2ccc(F)cc2)[C@@H](C)CN([C@@H](C)CO)C(=O)c2cc(NC(=O)c3ccccc3)ccc2O1,inactive: 0.025%
16,C[C@@H]1CN([C@@H](C)CO)C(=O)c2cc(NC(=O)Nc3ccc4c(c3)OCO4)ccc2O[C@H]1CN(C)C,active: 44.9%
17,COc1ccc(NC2CCCN(C(=O)c3cccnc3SC)C2)cc1OC (stereo unspecified),inconclusive: 44.9%
18,C[C@@H]1CCCCO[C@@H](CN(C)Cc2ccc(C(F)(F)F)cc2)[C@H](C)CN([C@@H](C)CO)C(=O)c2cc(NS(=O)(=O)c3ccc(F)cc3)ccc2O1,inactive: -0.28%
19,Cc1[nH]c(C)c(S(=O)(=O)N2CCCCC2)c1C(=O)N1CCCC1,active: 85.3%
20,O=C(Nc1nnc(-c2cccs2)o1)c1cccc(F)c1,inconclusive: 42.3%
21,O=S(=O)(NC1CCCCC1)c1cccc2nsnc12,inconclusive: 33.3%
